Among all 410,000 compounds or so, about 6,400 (1.6%) were called active. This list was built around the results that the source calls inconclusive (neither active nor inactive); the mix of calls is not that of the screen. Calls follow the shape of the dose curve; as a rule, active = well fitted inhibition curve with a large enough effect; inconclusive = small, poorly fitted or top-dose-only effect; inactive = no such curve, though single readings can be large or run the other way. A potency beside an inconclusive call is a rough fit, not a confirmed value.
target: Glucagon-like peptide 1 receptor (Homo sapiens) (UniProt P43220); test: qHTS of GLP-1 Receptor Inverse Agonists (Inhibition Mode); conditions: HEK293 GLP-1R CRE-luciferase, luminescence, 24 h, GLP-1R form is constitutively active; activity change, negative = inhibition: at 38.3 µM (top of the series) unless noted; also: nearly all actives have a fitted effect of over 55% in size
Outline: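 Inverse agonists were sought by their lowering of basal cAMP reporter luciferase output in HEK293 cells stably carrying constitutively active human GLP-1R, after 24 h compound treatment.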
% is scaled to controls: 0 for no effect and ±100 for the full control effect; potency is read from the fitted curve at half-maximal effect; tags tell the direction and shape of the fitted curve.

UniProt P43220, sequence (P43220 whole entry, looked up): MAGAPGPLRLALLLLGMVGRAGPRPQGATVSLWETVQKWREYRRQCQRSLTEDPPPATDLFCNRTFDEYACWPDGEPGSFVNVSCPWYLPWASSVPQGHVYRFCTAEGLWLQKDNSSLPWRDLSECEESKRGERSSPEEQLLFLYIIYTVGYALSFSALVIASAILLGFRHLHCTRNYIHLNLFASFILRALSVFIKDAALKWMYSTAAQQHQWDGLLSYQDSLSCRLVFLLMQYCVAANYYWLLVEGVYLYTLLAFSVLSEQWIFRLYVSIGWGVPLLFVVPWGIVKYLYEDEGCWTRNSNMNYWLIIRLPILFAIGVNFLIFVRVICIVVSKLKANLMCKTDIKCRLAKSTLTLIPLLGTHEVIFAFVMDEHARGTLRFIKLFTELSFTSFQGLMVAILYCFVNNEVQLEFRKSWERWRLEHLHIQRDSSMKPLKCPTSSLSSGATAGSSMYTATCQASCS

Activity change, negative = inhibition, inactive:
COC(=O)C(C)Oc1cc(OC(C)C(=O)OC)c2c(C)c(Cl)c(=O)oc2c1 (stereo not given) 7.92%
CCc1oc(C(=O)O)cc1COC 0.178%
O=C(CCn1c(=O)c2ccccc2n(Cc2cccnc2)c1=O)NCc1ccc2c(c1)OCO2 -0.109%
Cc1ccsc1/C=N/n1cnc2sc(C)c(C)c2c1=O 3.93%
Cc1ccc2nc(COc3ccccc3NC(=O)c3ccccc3F)cc(=O)n2c1 1.53%
CCC(=O)NC1CC2CCCC(C1)N2Cc1ccc(C)cc1 (stereo not given) 0.133%
CCOc1ccc(S(=O)(=O)c2cn(Cc3ccccc3C)c3ccc(OC)cc3c2=O)cc1 -3.77%
Cc1c(CC(=O)NC(C)C)c(=O)oc2cc3c(cc12)CCC(C)(C)O3 -13.6%
COc1ccccc1N(CC(=O)Nc1ccc2c(c1)OCO2)S(=O)(=O)c1ccc(C)cc1 -27.7%
NC(=O)CSc1nnc(Cn2cnc3ccccc32)o1 -9.93%
O=C(c1ccc(Cl)nc1)N1CCN(C/C=C/c2ccccc2)CC1 -24.8%
COc1ccc(CCn2c(O)cc3nn(-c4nc5ccccc5s4)c(=O)c-3c2C)cc1 10.8%
CCOC(=O)C1=C(C)NC(=O)NC1c1cn(-c2ccccc2)nc1-c1ccc(OC(C)C)cc1 (stereo not given) -24.6%
Cc1nn(C)c2c1c(C(F)(F)F)cc(=O)n2C(C)C(=O)NCCc1ccccc1 (stereo not given) -33.4%
COc1ccc2oc(C(=O)OCC(=O)/C(C#N)=C(\C)N)c(C)c2c1 11.4%
CCN1CCCC1CN(Cc1cc2ccc(C)cc2[nH]c1=O)C(=S)Nc1ccccc1C(=O)OC (stereo not given) -5.6%
Cc1cc(OCCCn2c(CCNC(=O)C3CCCCC3)nc3ccccc32)ccc1Cl -9.49%
CCOC(=O)c1[nH]c(C)c(/C(O)=C2\C(=O)C(=O)N(CCCn3ccnc3)C2c2ccncc2)c1C (stereo not given) -12.5%
COCc1cc(=O)n2[nH]c(-c3cccc(Br)c3)cc2n1 9.32%
CC(C)C(=O)Nc1ccc2oc(-c3cc(F)c(F)cc3Cl)nc2c1 9.09%

Potency, active:
COc1cccc2sc(N(CCCN(C)C)C(=O)C(c3ccccc3)c3ccccc3)nc12 5.62 µM

Potency, inconclusive:
CCC(C)NC(=O)CSc1nc2c(sc(=S)n2-c2cc(Cl)ccc2OC)c(=O)[nH]1 (stereo not given) 14.1 µM [inhibitor, single point]
Cc1ccc(C)c(N2CCN(S(=O)(=O)c3ccc(-c4cnc(C5CC5)o4)cc3)CC2)c1 3.55 µM [inhibitor, partial curve]
Cc1ccc(-c2csc(NC(=O)CCNC(=O)c3ccccc3Cl)n2)cc1 28.2 µM [inhibitor, single point]
CCOC(=O)N1CCN(Cc2nc3cc(NC(=O)C(C)C)ccc3n2C(C)C)CC1 0.794 µM [inhibitor, full curve, poor fit]
c1ccc(CCCCNCC2COc3ccccc3O2)cc1 (stereo not given) 28.2 µM [inhibitor, single point]
CCc1cccc(NC(=O)C2Cc3ccccc3N2C(=O)c2ccccc2)c1 (stereo not given) 1.78 µM [inhibitor, full curve]
CCOc1cccc(C2c3[nH]c4ccccc4c3CCN2C(=O)CSCc2ccc(F)cc2)c1 (stereo not given) 7.94 µM [inhibitor, partial curve, poor fit]
CC(C)[C@H](NC(=O)c1ccc(Cl)cc1Cl)C(=O)NNC(=O)c1ccco1 0.891 µM [inhibitor, full curve, poor fit]
Cc1ccc2c(c1)c(CC(=O)Nc1ccc(C)c(F)c1)c(C(=O)O)n2C 28.2 µM [inhibitor, single point]
CC1CC(C)CN(C(=O)C(Cc2ccccc2)NC(=O)c2ccccc2)C1 (stereo not given) 35.5 µM [inhibitor, partial curve, poor fit]
C[C@]12c3[nH]c4ccccc4c3CCN1C(=O)C(CC(=O)NCC13CC4CC(CC(C4)C1)C3)C[C@@H]2C(=O)N1CCCCC1 (stereo not given in full) 28.2 µM [inhibitor, single point]
Cc1ccc(Cc2c(-c3cccc(Br)c3)nc3cc(C)c(Br)c(C)n23)cc1 11.2 µM [inhibitor, partial curve]
Cc1cc(C)c2nc(NNC(=O)c3ccc(S(=O)(=O)N4CCCCC4)cc3)sc2c1 22.4 µM [inhibitor, single point]
O=C1Nc2ccccc2/C1=C/C(=O)c1cccs1 10 µM [inhibitor, partial curve, poor fit]
COc1ccc(CCNC(c2ccc(F)cc2)c2nnc(-c3ccccc3Cl)o2)cc1OC (stereo not given) 28.2 µM [inhibitor, single point]
O=C(CN1CCOc2ccccc21)NC1CCN(Cc2ccccc2)CC1 28.2 µM [inhibitor, single point]
COCCOCCn1c(/C=C/c2ccccc2)nc2ccccc21 11.2 µM [inhibitor, single point]
Cc1cc(C)c(O)c(-c2cc(C(=O)Nc3ccc(S(=O)(=O)N4CCOCC4)cc3)[nH]n2)c1 6.31 µM [inhibitor, partial curve, poor fit]
C=CCN(CC=C)c1nc2ccccc2nc1C(C#N)C(=O)OCCOC (stereo not given) 10 µM [inhibitor, partial curve]
CN1CCN(/N=C/c2nc(-c3ccc(Cl)cc3)n3ccccc23)CC1 12.6 µM [inhibitor, partial curve, poor fit]
NS(=O)(=O)c1ccc(CCNC(=O)CN2CCC(Cc3ccccc3)CC2)cc1 11.2 µM [inhibitor, partial curve, poor fit]
Cc1c(C(=O)N(C)C2CCCCC2)sc2ncnc(N3CCN(c4ccccc4)CC3)c12 11.2 µM [inhibitor, partial curve, poor fit]
Brc1ccc(C2=CC(c3cccs3)n3ncnc3N2)cc1 (stereo not given) 20 µM [inhibitor, single point]
CCOC(=O)N1CCN(C(=O)CSCc2ccc(Br)cc2)CC1 28.2 µM [inhibitor, single point]
COc1cc(/C=C/c2nc(-c3ccccc3O)n[nH]2)cc(OC)c1OC 28.2 µM [inhibitor, single point]
CCOC(=O)c1ccc(N2CCOCC2)c(NC(=O)c2c(-c3ccccc3)noc2C)c1 6.31 µM [inhibitor, partial curve, poor fit]
Cc1ccccc1C(=O)N1CCC(C(=O)Nc2ccc(C)c(S(=O)(=O)N3CCCCC3)c2)CC1 28.2 µM [inhibitor, single point]
Cc1ccc2c(c1)N(CC(=O)NCCc1c[nH]c3ccccc13)C(=O)CO2 28.2 µM [inhibitor, single point]
Cc1cc(Br)cc2c1N(C)C(=O)C2(c1ccc(O)cc1)c1ccc(O)cc1 11.2 µM [inhibitor, single point]
O=C(CSc1nc(-c2cccs2)nc2cc(=O)[nH]n12)Nc1cccc(C(F)(F)F)c1 28.2 µM [inhibitor, single point]
CC(C(=O)NC(C)(C)C)n1c(C(c2ccccc2)c2ccccc2)nc2ccccc21 (stereo not given) 28.2 µM [inhibitor, single point]
COc1ccc(-c2c3c(=O)n(C)c(=O)n(C)c3c3n2-c2ccccc2NC3c2ccc(O)cc2O)cc1 (stereo not given) 11.2 µM [inhibitor, single point]
COc1ccc(N(CC(=O)Nc2cccc(C(C)=O)c2)S(=O)(=O)c2ccccc2)c(OC)c1 7.94 µM [inhibitor, partial curve, poor fit]
Cc1cc(N2CCOCC2)nc2ccc(NC(=O)CCC(=O)N3CCCCC3)cc12 31.6 µM [inhibitor, single point]
COC(=O)N/N=C/c1ccc(OS(=O)(=O)c2ccc(C)cc2)c(OC)c1 8.91 µM [inhibitor, partial curve, poor fit]
CCn1c(SCc2nc3scc(-c4ccccc4)c3c(=O)[nH]2)nnc1-c1cccs1 28.2 µM [inhibitor, single point]
O=C(NC(=S)Nc1ccc2c(c1)OCCO2)c1cccc2ccccc12 7.94 µM [inhibitor, partial curve, poor fit]
C/C(CC(=O)Nc1cc(C)ccn1)=N\NC(=O)c1cccc(C)c1O 10 µM [inhibitor, partial curve, poor fit]
Cc1ccccc1NC(=S)NC(NC(=O)c1ccco1)C(Cl)(Cl)Cl (stereo not given) 22.4 µM [inhibitor, single point]
COc1cccc(CNC(=S)Nc2cccc(Cl)c2C)c1 5.62 µM [inhibitor, single point]
CCC1Oc2ccc(C)cc2N(CC(=O)NCCCN2CCN(Cc3ccccc3)CC2)C1=O (stereo not given) 10 µM [inhibitor, partial curve, poor fit]
Cc1csc(NC(=O)CSc2nc(C(C)C)nc3ccccc23)n1 8.91 µM [inhibitor, single point]
Cc1ccc(C(=O)N/C(=C\c2ccc(-c3ccccc3[N+](=O)[O-])o2)C(=O)NCCN(C)C)cc1 11.2 µM [inhibitor, partial curve, poor fit]
Cn1nc(-c2ccccc2)c(CSc2ccccc2)c1Cl 28.2 µM [inhibitor, single point]

— PubChem BioAssay AID624417 (National Center for Advancing Translational Sciences (NCATS), 2012)
